# Source: the supplement of paper PMC8728848
# The list shows a part of the results.
# Key:
# Assay in all cases: glycan array binding signal (z-score within array); higher = stronger binding
# Conditions in all cases: glycan notation: IUPAC condensed, linker removed
# Neu5Gc(a2-6)GalNAc = molecular target: Neu5Gc(a2-6)GalNAc
# Method in brief: (§1)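 From the Consortium for Functional Glycomics database, 3228 arrays were curated, keeping only those whose protein sequence was available. Binding is given as a within-array Z-score averaged across arrays sharing a protein sequence and across linkers. Negative Z-scores can be read as non-binding.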
# Rha(a1-6)Glc = molecular target: Rha(a1-6)Glc
# Method in brief: as §1
# [1] = molecular target: Xyl(a1-6)Glc(b1-4)[Xyl(a1-6)]Glc(b1-4)[Xyl(a1-6)]Glc(b1-4)Glc
# Method in brief: as §1
# [2] = molecular target: Xyl(b1-2)[Man(a1-3)][Man(a1-6)]Man(b1-4)GlcNAc(b1-4)GlcNAc
# Method in brief: as §1
# [3] = molecular target: Xyl(b1-2)[Man(a1-3)][Man(a1-6)]Man(b1-4)GlcNAc(b1-4)[Fuc(a1-3)]GlcNAc
# Method in brief: as §1
# [4] = molecular target: Xyl(b1-4)Xyl(b1-4)Xyl(b1-4)Xyl(b1-4)Xyl
# Method in brief: as §1
# [5] = molecular target: Xyl(b1-4)Xyl(b1-4)Xyl(b1-4)Xyl(b1-4)Xyl(b1-4)Xyl
# Method in brief: as §1
binder,measurement,setting,value
"ZG16p (Homo sapiens), O60844 (protein) ARSSSYSGEYGGGGGKRFSHSGNQLDGPITALRVRVNTYYIVGLQVRYGKVWSDYVGGRNGDLEEIFLHPGESVIQVSGKYKWYLKKLLFVTDKGRYLSFGKDSGTSFNAVPLHPNTVLRFISGRSGSLIDAIGLHWDVYPSSCSRC",glycan array binding signal (z-score),Neu5Gc(a2-6)GalNAc,-0.328
same,glycan array binding signal (z-score),Rha(a1-6)Glc,-0.078
same,glycan array binding signal (z-score),[1],-0.328
same,glycan array binding signal (z-score),[2],-0.216
same,glycan array binding signal (z-score),[3],-0.369
same,glycan array binding signal (z-score),[4],-0.328
same,glycan array binding signal (z-score),[5],-0.328
